Assay results: the supplement of paper PMC3334620
The full ranking holds about 33,000 sequences; the median of “E-score (-0.5 to 0.5)” is about -0.036, and the highest 2% start at about 0.37. This is one part of the list.

The sequences below were run against T1, Yer064c (UniProt P40041) (assay: PBM E-score (8-mer binding enrichment) (E-score (-0.5 to 0.5)); higher = stronger / more preferred TF binding; most listed sequences are background and not binding sites). Settings: protein concentration: 200 nM; construct: GST-full length.
T1 sequence: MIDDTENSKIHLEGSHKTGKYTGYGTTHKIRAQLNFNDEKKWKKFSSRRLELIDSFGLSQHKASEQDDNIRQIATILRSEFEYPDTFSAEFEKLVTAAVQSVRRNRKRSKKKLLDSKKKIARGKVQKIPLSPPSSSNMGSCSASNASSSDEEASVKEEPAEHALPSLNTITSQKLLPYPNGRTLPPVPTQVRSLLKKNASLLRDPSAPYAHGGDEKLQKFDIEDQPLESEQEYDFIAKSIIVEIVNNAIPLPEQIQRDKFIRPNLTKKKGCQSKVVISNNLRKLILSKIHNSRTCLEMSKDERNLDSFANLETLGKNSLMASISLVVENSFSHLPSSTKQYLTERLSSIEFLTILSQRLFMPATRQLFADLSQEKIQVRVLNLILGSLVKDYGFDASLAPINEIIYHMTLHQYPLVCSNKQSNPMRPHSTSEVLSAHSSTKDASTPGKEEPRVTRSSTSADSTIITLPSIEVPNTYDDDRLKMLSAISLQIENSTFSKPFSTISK
In short: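 The E-score, a modified Wilcoxon-Mann-Whitney statistic, was computed by the Universal PBM Analysis Suite for every ungapped eight-base word pooled with its reverse complement. Scans behind it were normalised with masliner after bound GST-tagged yeast transcription factors were detected with fluorescent anti-GST. The proteins, at about 100-200 nM, had been applied to universal all-10-mer Agilent arrays made double-stranded by primer extension.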

Sequence	PBM E-score
CAAGGCCA	-0.197
CGTGAGGC	-0.298
CACCTCAG	-0.0754
AGGGATCG	-0.137
ACCGCCCT	-0.174
CAGATTGC	-0.117
ACGACTAT	0.401
CTCATCCC	0.048
GGCGGGAA	-0.353
ATTTAGTC	0.444
GCCAACTA	0.0439
CGAAAAGC	-0.166
CAGAGGAA	-0.108
CCCGTGTC	-0.17
CCATTCGC	-0.0756
TGTCGTAA	-0.0131
TCCAAGCA	0.0169
TCTAGGCA	-0.0384
CTGTCTAA	0.105
CACGGTCG	0.0321
GATTCCGC	0.225
GGCTTTTA	-0.215
ATCGTAAC	0.0475
ACGGTGGG	-0.124
CGGTACCG	0.0264

Sequence	PBM E-score
ACTTGTAA	-0.0878
AAATAAGC	-0.112
CGCGAGGA	0.054
GCTGGTCC	-0.226
AATATGTC	-0.0854
CTGGACGA	-0.0631
CGTGGGCC	-0.27
AGCAAAAT	-0.0479
CGGAACAA	-0.0264
AAAACGGC	-0.298
AGTCGGTC	0.0869
CGGTCTTA	-0.123
AATGTTAC	-0.163
AGCTTCTC	-0.141
CGGACAAA	0.0944
GTCACGAA	0.106
GAACTTAC	-0.0347
GGTGGCGA	-0.161
CACATACC	0.00062
CGATGTGA	0.103
ATACCTGG	-0.246
CAGTGAGA	0.0301
AACGTTGT	-0.271
CGAAGACG	-0.172
CGCTTTTC	-0.313

Sequence	PBM E-score
GACAAGAC	-0.00374
TCCAAACA	-0.12
CTTTTACC	0.0597
CTCTGGCA	-0.214
CTGTTGTC	-0.0565
TAAGATAA	0.0931
TTCTTCAA	0.146
AATCAGCC	0.355
ACAGGGTC	-0.0708
AGGGTACA	-0.0998
ATCTTGAA	0.243
GTTTATGA	0.0851
CGTCTTAA	-0.00451
ACGGTAGT	0.23
AAGGTGTC	-0.104
GCCCACAC	-0.164
CGCAGGAG	0.00394
AATAGGGG	-0.273
ATTAGGGA	-0.0406
AAACGCTG	-0.316
CTATGCTC	-0.229
CTTCCTTC	-0.245
CATACTTC	0.00163
AGAAAGAT	0.0186
GTAACCAC	-0.00779

Sequence	PBM E-score
TGCGGCAA	-0.173
GCTGGCTA	0.183
AAAACACG	-0.0778
ATATGTAG	0.0597
CCAGCGGG	-0.2
ATGCAGAA	-0.141
GCAGTAAA	-0.127
AGTTTTCC	-0.243
AGCTTAAC	-0.0504
CCTTCTAA	0.0218
ATATCATG	-0.0474
CGAATACA	-0.139
CATGAATG	0.197
ATTATTAC	0.0211
ATGTGCAG	-0.231
CCTAGGGC	-0.0352
CACTTGTA	-0.0574
CTGAGCTA	-0.143
TTAGAAAA	0.0375
ACTTTTCG	0.0128
TAACTGAA	0.0233
ACCACGGA	-0.17
GCAGTGCA	-0.082
GTGCGCGA	-0.0828
CACACAAA	0.0172

Sequence	PBM E-score
AGAGGCAC	-0.0952
CAGTTCAC	-0.0182
ATATTGTG	-0.101
ATTAACAG	0.0829
GTATGGCA	-0.184
GTCAGCTA	0.156
CAGTATCA	-0.162
ATGCCACG	-0.299
GACAGTCC	0.0581
ACGACAAG	-0.289
CCTAGTCA	0.446
AAAGTGAC	0.305
GTCAAAAA	0.22
CTTCGAGA	0.0551
GCTTGGCA	-0.117
ACTGGCCT	-0.187
TAAATATA	0.255
CGCTGATA	-0.0314
ACGGCTGG	-0.0618
ATGACATG	0.0304
CAGAGTAG	0.0443
ACAGGCGG	-0.162
AGGTACGG	-0.127
ATGAACCA	0.25
ATCAGCAT	0.11

Sequence	PBM E-score
AAAAGTTT	-0.0997
ACGAGGAG	-0.0257
AAGTGGGC	-0.068
CCCTACGA	0.0187
CGACCTCA	0.0582
CATGTGTC	0.175
CCCAGAGA	-0.136
ACCATACC	0.065
AATATACC	0.0972
AGACTCGG	0.227
ACTCCTAC	0.319
GCATAAGC	-0.214
CTGCCCAC	-0.296
ACGTCGAC	0.134
ACCACTCT	-0.0617
ATACCAAG	-0.1
CAACATTA	0.102
CCTACTAA	0.0147
TGCGAGAA	-0.177
CGAGCCCG	-0.143
CCGGTTCC	-0.328
ACTTATCG	0.0591
CCTGGCAG	-0.105
CCGTGGAA	0.0311
TATGCTGA	0.192

Sequence	PBM E-score
ACTGCAAA	0.102
CCCTAACC	-0.338
CCTTCGCC	-0.256
ATGCTCAC	-0.0501
ATTCGCGG	0.13
ACATCTCC	-0.122
AAGTCTAA	0.0139
TCTCATAA	0.209
CGGGTCGC	-0.0932
TAGGTAAA	0.0133
TGTAGAAA	-0.103
CAATTTAG	0.196
AGCTTCCC	-0.305
AACCACTT	0.006
TGCTACAA	0.0171
CATACAAC	-0.101
AACCTGGA	-0.115
CCCCTCAG	-0.251
CTCCTACA	0.111
CCGGATTC	-0.121
CTTAATGC	0.0833
AAACGGTG	0.0462
